Here are results for 56 molecules from PubChem BioAssay AID360 (National Center for Advancing Translational Sciences (NCATS), 2006).

The whole screen tested about 48,000 compounds, of which about 550 (1.1%) were called active. Inconclusive results (about 4%) are left out. No stated cut-off is given here; in the data, active means potency below about 15 µM; inconclusive means mostly about 16 µM to 33 µM; inactive means weaker than that. The list shows a part of the results.
Potency means the concentration at half of the fitted maximal effect.

UniProt P04062, sequence (P04062 whole entry, looked up): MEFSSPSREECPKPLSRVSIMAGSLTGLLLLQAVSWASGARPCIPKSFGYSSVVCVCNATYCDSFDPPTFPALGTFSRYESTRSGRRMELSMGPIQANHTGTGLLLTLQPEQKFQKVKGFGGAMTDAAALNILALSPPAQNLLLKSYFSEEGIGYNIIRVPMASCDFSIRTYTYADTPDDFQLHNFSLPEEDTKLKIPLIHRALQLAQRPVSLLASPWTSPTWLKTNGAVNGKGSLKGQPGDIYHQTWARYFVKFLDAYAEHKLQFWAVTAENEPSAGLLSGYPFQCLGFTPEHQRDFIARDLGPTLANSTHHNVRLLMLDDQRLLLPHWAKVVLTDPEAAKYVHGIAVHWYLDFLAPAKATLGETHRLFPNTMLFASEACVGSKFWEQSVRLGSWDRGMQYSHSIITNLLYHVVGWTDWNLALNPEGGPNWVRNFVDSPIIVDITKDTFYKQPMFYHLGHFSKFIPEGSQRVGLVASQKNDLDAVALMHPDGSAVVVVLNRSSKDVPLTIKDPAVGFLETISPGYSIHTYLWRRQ

The target of the experiment is Lysosomal acid glucosylceramidase (Homo sapiens) (UniProt P04062). The experiment in a line: Glucocerebrosidase.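 Further: the screen sought inhibitors.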 The conditions noted are these: purified enzyme, resorufin glucoside fluorescence (screen aimed at inhibitors), 20 min; series mostly up to 77 µM. In outline:
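Compounds titrated against 0.2 nM normal enzyme, 30 uM resorufin beta-D-glucopyranoside substrate, citrate/phosphate buffer with taurocholate and tween-20, pH 5.9. Reaction ran 20 min at room temperature; fluorescence (Ex 548/Em 600) gave AC50.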
Consider `COc1cc(NS(=O)(=O)c2ccc(C)cc2)c2ncccc2c1`, for which the Potency was inactive: > 76.9 µM.
The result for `Cc1ccc2c(c1)N(CC(=O)c1cccc(Cl)c1)C(=O)C(C)O2` (stereo unspecified) reads inactive: > 76.9 µM; that for `Cc1ccc2cc(CN(CC(C)C)C(=O)C3CCCO3)c(=O)[nH]c2c1` (stereo unspecified), inactive: > 76.9 µM; that for `COC(=O)c1ccc(NS(=O)(=O)c2cc(C)ccc2OC)cc1`, inactive: > 76.9 µM.
On to `CCN(CC)C(=O)CSc1nc2ccccc2c(=O)n1-c1ccccc1OC`, for which the Potency is inactive: > 76.9 µM.
On to `CSCC[C@H](NC(=O)NCCc1ccc(F)cc1)C(=O)O`, for which the Potency was inactive: > 76.9 µM.
In the case of `COC(=O)C1C(=O)C2=C(CC1C)NC(C)=C(C(=O)OCc1ccc(OC)cc1)C2c1ccc(C)o1` (stereo unspecified), the Potency was inactive: > 76.9 µM.
`O=C(NCc1cccnc1)C1CC(=O)N(C2CCCCC2)C1` (stereo unspecified): the Potency was inactive: > 76.9 µM.
Take `Cc1noc(C)c1CSc1ccccc1C(=O)N1CCN(c2ccccc2)CC1`: the Potency was inactive: > 76.9 µM.
On to `COC(=O)c1sccc1NC(=O)c1ccco1`, for which the Potency was inactive: > 76.9 µM.
The result for `COc1ccc(C2CC(=O)C3=C(C2)Nc2ncnn2C3c2ccccc2C)cc1` (stereo unspecified) reads inactive: > 76.9 µM; that for `CCOC(=O)CSc1nnc(CCc2nc3ccccc3[nH]2)n1C`, inactive: > 76.9 µM; that for `CCOC(=O)c1cccc(-n2c(C)nc3ccccc3c2=O)c1`, inactive: > 76.9 µM.
Consider `O=C(CCCNS(=O)(=O)c1cccs1)N1CCN(c2cccc(Cl)c2)CC1`, for which the Potency was inactive: > 76.9 µM.
With `COc1cc(-c2nnc(-c3ccc(S(=O)(=O)c4ccccc4)cc3)o2)cc(OC)c1OC`, the Potency is inactive: > 76.9 µM.
For `CCNc1nc(NC(C)C)nc(NS(=O)(=O)c2ccc(Cl)cc2)n1`, the Potency was inactive: > 76.9 µM.
Under `Cc1nc2c(C(=O)O)cnn2c(C)c1Cc1ccccc1F` stands inactive: > 76.9 µM; under `Cc1ccc2cc(C#N)c(N3CCCN(C(=O)C4CCCO4)CC3)nc2c1C` (stereo unspecified), inactive: > 76.9 µM.
Take `O=C(c1ccco1)N1CCN(C2CC(=O)N(c3ccc4c(c3)OCO4)C2=O)CC1` (stereo unspecified): the Potency is inactive: > 76.9 µM.
As for `CSc1nc(NCC(C)C)nc(N2CCOCC2)n1`, the Potency is inactive: > 76.9 µM.
On to `CS(=O)(=O)N1CCC(C(=O)NCc2ccco2)CC1`, for which the Potency is inactive: > 76.9 µM.
The result for `N#CCCn1ncc2ccccc21` reads inactive: > 76.9 µM.
`NC(=O)C1CCN(c2oc(-c3ccccc3F)nc2S(=O)(=O)c2ccc(Cl)cc2)CC1`: the Potency is inactive: > 76.9 µM.
The result for `CN1C(=O)C2(c3ccccc31)N(C)CC(c1ccccn1)C21SC(=S)N(Cc2ccco2)C1=O` (stereo unspecified) reads inactive: > 76.9 µM.
For the molecule `CCOC(=O)n1c(=O)oc2cc(S(=O)(=O)N3CCCCC3)ccc21`, the Potency is inactive: > 76.9 µM.
Regarding `COc1cccc(CNC(=O)CCNS(=O)(=O)c2cccs2)c1`, the Potency was inactive: > 76.9 µM.
As for `CCn1c(NC(=O)c2cccs2)c(-c2cccs2)c(=O)c2ccccc21`, the Potency was inactive: > 76.9 µM.
Take `COc1ccc(OC)c2[nH]c(=O)c(CCNS(=O)(=O)c3ccc(Cl)cc3)cc12`: the Potency was inactive: > 76.9 µM.
With `Cc1cc(C)nc(-n2nc(C)cc2NC(=O)c2cc(=O)c3ccccc3o2)n1`, the Potency was inactive: > 76.9 µM.
With `CCOC(=O)c1c(NC(=O)COC)sc(C(C)=O)c1C`, the Potency was inactive: > 76.9 µM.
The result for `Cc1occc1-c1nnc(SCC(=O)NCc2cccs2)n1CC1CCCO1` (stereo unspecified) reads inactive: > 76.9 µM; that for `CSCC[C@H](NC(=O)C1CCN(S(=O)(=O)c2ccc(C)cc2)CC1)C(=O)NCC1CCCO1` (stereo partly specified), inactive: > 76.9 µM.
Take `CCOC(=O)C1CCN(C(=O)CSCc2nc(-c3ccc(OCC)cc3)oc2C)CC1`: the Potency is inactive: > 76.9 µM.
For the molecule `O=C(CN1CCN(c2ccccc2)CC1)Nc1nnc(-c2ccccc2)s1`, the Potency is inactive: > 76.9 µM.
In the case of `Cc1nc2sc(-c3ccccc3)cc2c(=O)n1-n1cccc1`, the Potency is inactive: > 76.9 µM.
For the molecule `O=C(Cn1[nH]c(=O)c2ccccc2c1=O)OCC(=O)N1CCc2ccccc2C1`, the Potency is inactive: > 76.9 µM.
In the case of `COc1ccc(-c2nnc(SCC(=O)Nc3cc(C)on3)n2C)cc1OC`, the Potency was inactive: > 76.9 µM.
Turning to `CC(=O)Nc1cccc(OC(=O)c2ccoc2C)c1`, the Potency is inactive: > 76.9 µM.
Turning to `O=C(Nc1ccccc1N1CCCCC1)c1ncoc1-c1ccc(F)cc1`, the Potency result was “inactive”.
For `Cc1ccccc1NC(=O)Cc1nnc(SCC(=O)N2CCN(c3ccccc3)CC2)n1C`, the Potency was inactive: > 76.9 µM.
In the case of `COc1ccc(CCNC(=O)CNCC2CCCO2)cc1OC` (stereo unspecified), the Potency was inactive: > 76.9 µM.
Under `COc1cc(OC)cc(C(=O)Nc2ccc(S(=O)(=O)N(C)C)cc2)c1` stands inactive: > 76.9 µM.
As to `c1ccc(CNc2c3c(nc4ncnn24)CCCC3)nc1`, the Potency was inactive: > 76.9 µM.
For the molecule `CC(=O)N(C)C1(c2nnnn2CCOC(=O)Nc2ccc(Cl)cc2)CCCCC1`, the Potency was inactive: > 76.9 µM.
In the case of `CN1CCCCc2c1nc1c(c2N)CCCC1`, the Potency is inactive: > 76.9 µM.
For the molecule `Cc1ccc2c(c1)N(CC(=O)NC1CCCc3ccccc31)C(=O)CO2` (stereo unspecified), the Potency is inactive: > 76.9 µM.
On to `COCCN(C(=O)CCCC(=O)Nc1ccccn1)C(C(=O)NC1CCCCC1)c1ccc(C)cc1` (stereo unspecified), for which the Potency was inactive: > 76.9 µM.
Under `O=C(Nc1cccc(NC(=O)c2nccc3ccccc23)c1)c1ccco1` stands inactive: > 76.9 µM.
For the molecule `COC(=O)c1cn(C(C)C(=O)NCc2ccco2)c2ccccc12` (stereo unspecified), the Potency is inactive: > 76.9 µM.
`CCOC(=O)C(NC(=O)CC)(Nc1ccc(S(=O)(=O)Nc2onc(C)c2C)cc1)C(F)(F)F` (stereo unspecified): the Potency was inactive: > 76.9 µM.
Take `CC(C)OC(=O)CSc1nnc(-c2cccnc2)n1Cc1ccccc1`: the Potency is inactive: > 76.9 µM.
As for `CCCc1[nH]nc2c1C(c1ccc(O)c(OC)c1)C(C#N)=C(N)O2` (stereo unspecified), the Potency is inactive: > 76.9 µM.
`COc1cc(-c2nnc(SCC(=O)N(Cc3ccccc3)C(C)(C)C)o2)cc(OC)c1OC`: the Potency was inactive: > 76.9 µM.
With `COC(=O)c1ccccc1NC(=O)Cn1cnc2c(cnn2-c2ccccc2)c1=O`, the Potency is inactive: > 76.9 µM.
With `CC(NS(=O)(=O)c1ccc(OCC(=O)N2CCOCC2)cc1)c1ccccc1` (stereo unspecified), the Potency was inactive: > 76.9 µM.
Take `COc1ccc(C(=O)CSc2nnnn2Cc2ccccc2)cc1`: the Potency was inactive: > 76.9 µM.
